# Source: the supplement of paper PMC3334620
# The full ranking holds about 33,000 sequences; the median of “E-score (-0.5 to 0.5)” is about -0.016, and the highest 2% start at about 0.32. The list shows a part of the results.
# Biological target: T1, Stp1 (UniProt B3LFK1)
# T1 sequence: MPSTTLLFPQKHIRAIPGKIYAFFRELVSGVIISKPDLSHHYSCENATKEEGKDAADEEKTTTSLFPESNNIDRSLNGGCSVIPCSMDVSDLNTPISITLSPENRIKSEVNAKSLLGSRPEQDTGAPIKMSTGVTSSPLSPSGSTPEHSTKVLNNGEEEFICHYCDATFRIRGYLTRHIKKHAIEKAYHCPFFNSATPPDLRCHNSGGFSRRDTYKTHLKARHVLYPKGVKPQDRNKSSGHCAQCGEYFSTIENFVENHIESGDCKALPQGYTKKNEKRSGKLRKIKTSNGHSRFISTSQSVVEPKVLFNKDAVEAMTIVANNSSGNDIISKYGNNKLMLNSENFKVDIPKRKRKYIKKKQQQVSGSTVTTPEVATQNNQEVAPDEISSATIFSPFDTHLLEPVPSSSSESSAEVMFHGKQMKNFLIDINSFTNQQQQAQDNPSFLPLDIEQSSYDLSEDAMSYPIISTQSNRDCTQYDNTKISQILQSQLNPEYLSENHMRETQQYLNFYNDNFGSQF
# Assay: PBM E-score (8-mer binding enrichment) (E-score (-0.5 to 0.5)); higher = stronger / more preferred TF binding; most listed sequences are background and not binding sites
# Conditions: protein concentration: 200 nM; construct: GST-full length
# Procedure, shortened: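 PURExpress in vitro transcription/translation supplied GST-tagged yeast transcription factors, either full-length or DNA-binding domain. Applied at about 100-200 nM to universal all-10-mer Agilent arrays double-stranded by primer extension, the bound protein was detected with fluorescent anti-GST. E-scores, modified Wilcoxon-Mann-Whitney statistics, were given by the Universal PBM Analysis Suite to ungapped eight-base words pooled with their reverse complements after masliner normalisation.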
row,Sequence,PBM E-score
1,AGTTACTG,-0.0577
2,CCCTCAGG,-0.224
3,ACTGAAAT,0.138
4,ATGATGTC,-0.167
5,CACATGTG,-0.00297
6,CATCAACA,0.123
7,AGACTGGA,-0.146
8,AATGTCCG,0.0749
9,TGAGCTCA,0.0398
10,AAGGATCA,-0.00163
11,AACTTTAA,0.149
12,TAGCTGGA,-0.384
13,ATGAAGAC,0.0861
14,GAATGTCC,-0.0798
15,ATGCGTGC,0.137
16,GAAAGCCA,-0.172
17,CTGTCACA,0.0144
18,AAAAATTA,0.27
19,ATGAGTTG,-0.0406
20,GGGAGCTA,-0.235
21,CGTACGCC,0.233
22,ATAAGGCA,0.299
23,CTCGTGGA,-0.152
24,GAGCGTGA,-0.0524

row,Sequence,PBM E-score
1,CGAAAAGA,0.184
2,AAATCGCC,0.304
3,CACAGTTA,0.058
4,CAATCAAG,0.00135
5,ATGTAGAA,-0.0668
6,ATGTCACC,-0.0379
7,CGTACACA,0.113
8,TGCGATAA,0.0863
9,ACGATACC,-0.0468
10,AAGCAGAT,0.0402
11,CGTGTCTC,0.037
12,ATCCCGCG,0.225
13,CGTTGCTC,0.0478
14,GTTGTAGA,0.131
15,TGCAAACA,-0.154
16,ACTAGGCG,0.258
17,CGAATCGA,0.242
18,AAAATATT,0.135
19,GCTCTCCC,-0.267
20,CATTAAAC,0.0805
21,CGATTTAA,0.11
22,CAGGGATG,-0.13
23,CTGTAACC,0.0613
24,AATGGGGC,0.0987

row,Sequence,PBM E-score
1,AGTGGACC,-0.286
2,ATGTCCGA,-0.154
3,GAGTAACA,0.144
4,CATAAATC,0.121
5,GATTTGGA,-0.111
6,GGGAGGGA,-0.259
7,ATTATGCA,0.0102
8,AAAGCATG,-0.0619
9,CCGGGAAA,-0.125
10,TACCTCAA,-0.169
11,GCATTCCC,-0.127
12,CACCCTGC,-0.105
13,ACGGAAGC,0.0748
14,AAGGGTCA,-0.161
15,ATCTTCTA,-0.02
16,AAAGCAGA,0.0506
17,GACCAACC,-0.152
18,CAAGAGGA,-0.0502
19,ATCAACTA,0.195
20,ACATACCC,-0.00954
21,GCAAAGGA,0.0118
22,ATATTCCC,-0.123
23,GAATTGCC,0.115
24,ACATGATC,0.133

row,Sequence,PBM E-score
1,TTGTGAAA,0.106
2,AAGGTTTA,-0.217
3,CGCCAGCG,-0.00723
4,AGCGACGG,0.175
5,ACGAGCAG,0.0182
6,CGCCAGGA,-0.138
7,AAATCATA,0.184
8,CTGGGCTA,-0.272
9,CTATTTCA,0.145
10,CGCGCTCA,0.182
11,ATACGACC,-0.13
12,AAGCGAAC,-0.0555
13,GTCGGTTA,-0.0125
14,CGGGCGAA,-0.0179
15,GGGCGAAC,0.0424
16,CACCGGAC,-0.0582
17,CATCTTCC,0.123
18,ACCGTCGT,-0.0506
19,ACATTGGC,-0.158
20,CAGGTTAC,-0.139
21,AACCATGA,-0.0217
22,AGGCGAAA,0.102
